Out of some 360,000 compounds screened, about 2,600 (0.72%) were called active. The shares of active, inactive and inconclusive entries below differ from those in the screen. Calls come from the whole dose curve; as a rule, active = well fitted inhibition curve with a large enough effect; inconclusive = small, poorly fitted or top-dose-only effect; inactive = no such curve, though single readings can be large or run the other way. Potencies of inconclusive entries are doubtful fits and often do not repeat.
Assay: Primary qHTS for Inhibitors of ATXN expression; note: nearly all actives have a fitted effect of over 55% in size
Conditions: HEK-293 ATXN2-luciferase reporter, luminescence, 24 h; activity change, negative = inhibition: at 57 µM (top of the series)
Outline: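 qHTS (up to 57 uM final) was run with 24 h compound exposure of reporter cells at 37 °C. Each well was multiplexed: SteadyGlo luminescence measured ATXN2-luciferase expression after a fluorogenic Gly-Phe-AFC viability readout (25 uM final).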
In the case of `CC1(C(=O)N/N=C/c2ccc([N+](=O)[O-])o2)CC1(Br)Br` (configuration not stated), the Potency was inconclusive: 15.8 µM [inhibitor, partial curve]. With `CC(Sc1nn(-c2ccc(F)cc2)c(=S)s1)C(=O)c1c(N)n(C)c(=O)n(C)c1=O` (configuration not stated) the “activity change, negative = inhibition” value was inactive: -10.1%. For `COc1ccc(-c2cc(C(F)(F)F)nc(S(=O)(=O)CCCC(=O)Nc3cccc(O)c3)n2)cc1OC`, the “activity change, negative = inhibition” value was inactive: -98.1%. With `COc1cc(CC(=O)Nc2nc(-c3ccc(F)c(F)c3)cs2)cc(OC)c1OC` the Potency was inconclusive: 22.4 µM [inhibitor, partial curve, poor fit]. With `COCCCn1c(SCC(N)=O)nnc1-c1ccccc1` the “activity change, negative = inhibition” value was inactive: 4.12%. With `O=C(Nc1ccccc1-c1cn2c(CN3CCNCC3)csc2n1)c1cnc2ccccc2n1` the Potency was inconclusive: 30.6 µM [inhibitor, single point]. In the case of `CCCCOc1ccc(NC2=NC3(CCCC3)N=C(N)N2)cc1`, the Potency was inconclusive: 0.0891 µM [inhibitor, full curve, poor fit]. With `COC(=O)[C@@]1(Cc2ccc(F)cc2)[C@H]2c3cc(C(=O)N(C)C)n(CCO)c3C[C@H]2CN1C(=O)c1ccccc1` the “activity change, negative = inhibition” value was inactive: 5.83%. For `COC(=O)C1=CN(Cc2ccc(OC)cc2)C=C(C(=O)OC)C1c1ccsc1`, the “activity change, negative = inhibition” value was inactive: -4.78%. For `NC(CCc1ccccc1)c1csc(NC(=O)Nc2cccc(Cl)c2)n1` (configuration not stated), the Potency was active: 20 µM. For `Cc1cccc2sc(NNC(=O)c3ccc(S(=O)(=O)N4CC(C)CC(C)C4)cc3)nc12` (configuration not stated), the Potency was inconclusive: 37.7 µM [inhibitor, single point]. With `Cc1ccc(C(=O)/C=C/C(=O)c2ccc(C)cc2)cc1` the Potency was inconclusive: 37.7 µM [inhibitor, single point]. For `COC(=O)C1CCCN1C(=O)C1CCCN1C(=O)CNC(=O)OCc1ccccc1` (configuration not stated), the Potency was inconclusive: 39.8 µM [inhibitor, single point]. In the case of `O=C(Nc1ccc(F)cc1)Nc1ccc(N2CCCC2)c(S(=O)(=O)Nc2ccccc2Cl)c1`, the Potency was inconclusive: 35.5 µM [inhibitor, single point]. With `CC(C)C[C@H](CO)Nc1nc(Nc2cccc(Cl)c2)c2ncn(C(C)C)c2n1` the Potency was inconclusive: 39.8 µM [inhibitor, partial curve, poor fit]. For `Cc1cc(=O)[nH]c(SCCOc2ccc3c(c2)CCC3)n1`, the “activity change, negative = inhibition” value was inactive: 20.4%. In the case of `O=C(c1ccc2ncsc2c1)N1CCN(c2ccccc2Cl)CC1`, the “activity change, negative = inhibition” value was inactive: 7.86%. With `Cc1cc(C)c2sc(N(CCCN(C)C)C(=O)c3ccc(Br)s3)nc2c1` the Potency was active: 8.91 µM. In the case of `Cc1cccc(OCCCC(=O)Nc2nc3ccccc3[nH]2)c1`, the Potency was active: 13.4 µM. In the case of `CN(C)CCN(C)C(=O)c1ccc(NC(=O)Nc2ccc(-c3nc(N4CCOCC4)c4ccn(CC(F)(F)F)c4n3)cc2)cc1`, the Potency was inconclusive: 3.43 µM [inhibitor, partial curve]. In the case of `CC1(C)CC2(CC(c3ccccc3F)c3cc(Cl)c(O)cc3O2)NC(=S)N1` (configuration not stated), the Potency was inconclusive: 31.6 µM [inhibitor, partial curve, poor fit]. With `CCC(C(=O)Nc1cc(Cl)ccc1OC)n1nc(-c2ccccc2)ccc1=O` (configuration not stated) the Potency was inconclusive: 39.8 µM [inhibitor, single point]. For `CC(C)OCCCNC(=O)c1ccc2c(c1)N(Cc1c(F)cccc1Cl)C(=O)c1ccccc1S2`, the Potency was inconclusive: 22.4 µM [inhibitor, single point]. With `CSc1ncnc2c1ncn2CCCNCc1ccc2c(c1)OCO2` the “activity change, negative = inhibition” value was inactive: 5.92%. With `S=C(NCCc1ccc(Cl)cc1)Nc1ccc(Cl)cc1Cl` the Potency was inconclusive: 35.5 µM [inhibitor, partial curve, poor fit]. For `Cc1ccccc1COc1cccn2c(N(C)C(=O)CCC3CCCC3)c(C)nc12`, the Potency was inconclusive: 31.6 µM [inhibitor, single point]. With `Cc1ccc(Nc2c(-c3c[nH]c4ccccc34)nc3cc(C)ccn23)cc1` the Potency was inconclusive: 39.8 µM [inhibitor, single point]. With `CCc1ccc(OCc2n[nH]c(=S)n2C(C)CCCC(C)C)cc1` (configuration not stated) the Potency was inconclusive: 15 µM [inhibitor, partial curve, poor fit]. With `CCCOC(=O)CSc1nc(N)c(C#N)c(-c2ccco2)c1C#N` the “activity change, negative = inhibition” value was inactive: -2.16%. For `Cc1ccc(OC(C)C(=O)Nc2nonc2-c2ccc(Br)cc2)cc1C` (configuration not stated), the Potency was inconclusive: 39.8 µM [inhibitor, single point]. In the case of `O=C(CSc1ccc(-c2ccccn2)nn1)NCc1ccc(Cl)cc1`, the Potency was inconclusive: 28.2 µM [inhibitor, single point]. With `COc1ccc(OCc2cccc(C(=O)NN)c2)cc1` the Potency was active: 2.24 µM. For `O=C(NCc1ccc(Cl)nc1)c1csc(COCCO)n1`, the “activity change, negative = inhibition” value was inactive: 11.1%. With `CCCCN(C)CCCNC(=O)C1CCN(c2nc3ccc(CC)cc3s2)CC1` the Potency was inconclusive: 39.8 µM [inhibitor, single point]. In the case of `COc1cccc(NC(=S)NC(=O)Cc2ccc(Cl)cc2)c1`, the “activity change, negative = inhibition” value was inactive: -6.88%. For `Cc1cc2cc(CN(Cc3nnnn3C3CCCCC3)CC3CCCO3)c(=O)[nH]c2cc1C` (configuration not stated), the “activity change, negative = inhibition” value was inactive: -23.7%. With `Cn1nnnc1Sc1ncnc2scc(-c3ccc(F)cc3)c12` the Potency was inconclusive: 39.8 µM [inhibitor, single point]. In the case of `Cc1ccc(C(=O)Nc2cccc(C(F)(F)F)c2)cc1-c1ccc2nc(NCCN3CCOCC3)ncc2c1`, the Potency was active: 6.11 µM. For `Cc1ccc(NC(=O)/C(C#N)=C/c2ccc(Sc3nc(C)cc(C)n3)o2)cc1`, the “activity change, negative = inhibition” value was inactive: -2.59%. With `CC(C)c1nnc(NC(=O)CCS(=O)(=O)c2ccccc2)s1` the “activity change, negative = inhibition” value was inactive: 52.4%. For `Cc1ccc(CNC(=O)C(CC(C)C)NS(=O)(=O)c2ccc3c(c2)oc(=O)n3C)cc1` (configuration not stated), the “activity change, negative = inhibition” value was inactive: 1.48%. With `CCc1ccc(O)c(CNCCNCc2cc(CC)ccc2O)c1` the Potency was inconclusive: 28.2 µM [inhibitor, single point]. For `Cc1cccc(N2CCN(CCNC(=O)C3COc4ccccc4C3)CC2)c1C` (configuration not stated), the “activity change, negative = inhibition” value was inactive: -7.58%. For `Cc1ccc(Cl)cc1-n1ncc2c(NC3CCCCCC3)ncnc21`, the Potency was inconclusive: 15.8 µM [inhibitor, partial curve]. For `S=c1[nH]nc(-c2ccco2)n1/N=C/c1ccccc1Cl`, the “activity change, negative = inhibition” value was inactive: 7.48%. In the case of `COc1cc(CNCCO)cc(Cl)c1OCc1ccc(Cl)cc1Cl`, the Potency was active: 15.8 µM. For `CCOC(=O)c1c(NC(=O)COc2ccccc2C#N)sc2c1CC(C)(C)NC2(C)C`, the Potency was inconclusive: 28.2 µM [inhibitor, single point]. For `C[C@@H]1CN([C@@H](C)CO)C(=O)c2cc(NC(=O)c3ccccc3)ccc2O[C@@H](C)CCCCO[C@@H]1CN(C)Cc1ccc(C(F)(F)F)cc1`, the Potency was inconclusive: 39.8 µM [inhibitor, partial curve, poor fit]. With `O=[N+]([O-])c1ccc(CN2CCN(c3nc4ccccc4s3)CC2)cc1` the “activity change, negative = inhibition” value was inactive: 6.45%. For `CCOc1ccc(-n2c(SCC(=O)N3CCOCC3)nc3c([nH]c4ccccc43)c2=O)cc1`, the “activity change, negative = inhibition” value was inactive: 2.81%. For `CN(C)CC(C(=O)c1ccccc1)c1ccccc1` (configuration not stated), the Potency was active: 22.4 µM. In the case of `CC(=O)c1ccc(N2CCN(C(=O)C3CCN(S(=O)(=O)c4ccc5c(c4)CC(C)N5C(C)=O)CC3)CC2)cc1` (configuration not stated), the “activity change, negative = inhibition” value was inactive: -18.1%. For `CN(c1ccccc1)S(=O)(=O)c1cccc(NC(=O)c2cc(=O)c3ccccc3o2)c1`, the Potency was active: 12.6 µM. With `Cc1cccc(C(=O)Oc2csc(=S)n2C(=O)c2cccc(C)c2)c1` the “activity change, negative = inhibition” value was inactive: -6.24%. In the case of `C=CCC[C@@H](Cc1ccc(F)cc1)C(=O)OC[C@H](Cc1c[nH]c2ccccc12)NC(=O)[C@@H](CC=C)CC(=O)NCCO`, the Potency was inconclusive: 39.8 µM [inhibitor, single point]. For `O=C1/C(=C\c2ccc(O)c(O)c2)SC(=S)N1Cc1ccccc1`, the Potency was inconclusive: 39.8 µM [inhibitor, single point]. For `Cc1cccc(C)c1OCC(=O)N=Nc1c(O)[nH]c2ccc(Br)cc12`, the Potency was inconclusive: 39.8 µM [inhibitor, single point]. With `Brc1ccc2nc(-c3ccco3)c(Cc3ccccc3)n2c1` the “activity change, negative = inhibition” value was inactive: 3.06%. In the case of `O=C(c1cc(Cl)nc2ccccc12)N(Cc1nnc(-c2ccccc2Cl)o1)C1CC1`, the “activity change, negative = inhibition” value was inactive: -6.69%. With `Cc1cc2nc(-c3ccc(OCc4ccccc4F)cc3)cc(C(F)(F)F)n2n1` the “activity change, negative = inhibition” value was inactive: 14%. In the case of `COc1ccc2[nH]c3c(=O)n(/N=C/[C@H]4C(C)C=C(C)CC4C)c(=O)[nH]c3c2c1` (some centres not stated), the Potency was inconclusive: 10 µM [inhibitor, partial curve]. In the case of `O=C(Nc1cccc(C(F)(F)F)c1)Nc1cc(S(=O)(=O)NC2CC2)ccc1-c1ccsc1`, the Potency was inconclusive: 30.6 µM [inhibitor, single point]. In the case of `C/C(=N/Nc1ncc(C(F)(F)F)cc1Cl)c1ccncc1`, the “activity change, negative = inhibition” value was inactive: -5.32%. In the case of `Cc1cc(C(=O)CN2C(=O)NC3(CCCCC3C)C2=O)c(C)n1Cc1cccs1` (configuration not stated), the “activity change, negative = inhibition” value was inactive: 60.7%. With `O=C(NCCO)c1ccc(-c2nnc(Nc3ccc(OC(F)(F)Cl)cc3)c3ccccc23)cc1` the Potency was inconclusive: 35.5 µM [inhibitor, single point]. In the case of `OCC1OC(n2cnc3c(NCc4ccccc4O)ncnc32)C(O)C1O` (configuration not stated), the Potency was inconclusive: 2.12 µM [inhibitor, full curve, poor fit]. With `CCC(CO)Oc1cc(NCc2ccc(Cl)cc2Cl)c2ncn(C(C)C)c2c1` (configuration not stated) the “activity change, negative = inhibition” value was inactive: -3.29%. With `COc1ccc2ncc3c(-c4ccc(C)c(C)c4)nn(CC(=O)Nc4ccccc4)c3c2c1` the “activity change, negative = inhibition” value was inactive: -0.433%. With `COC(=O)Nc1ccc(S(=O)(=O)N2c3ccccc3CCC2C)cc1` (configuration not stated) the Potency was inconclusive: 15.8 µM [inhibitor, partial curve]. For `CCOC(=O)N1CCC(c2cc(=O)n(-c3ccccc3)[nH]2)CC1`, the Potency was inconclusive: 7.52 µM [inhibitor, partial curve, poor fit]. With `CCOc1ccc(/C=N/NC(=O)C(O)c2ccccc2)c(O)c1` (configuration not stated) the Potency was active: 31.6 µM. With `Cc1ccc([C@H]2C[C@H](O)[C@@H](n3cc(-c4ccc(F)cc4)nn3)CN2Cc2cccs2)cc1` the Potency was inconclusive: 10 µM [inhibitor, partial curve, poor fit].
% is set by controls: 0 for no effect and ±100 for the full control effect; potency is the fitted concentration of half-maximal effect; tags give direction and shape of the fitted curve.
